Test [1] deals with T1, RPW8.1 fused to the Gal4 DNA-binding domain (BD) of pGBKT7 (Arabidopsis (accession Ms-0)) (UniProt Q9C5Z7).
T1 sequence: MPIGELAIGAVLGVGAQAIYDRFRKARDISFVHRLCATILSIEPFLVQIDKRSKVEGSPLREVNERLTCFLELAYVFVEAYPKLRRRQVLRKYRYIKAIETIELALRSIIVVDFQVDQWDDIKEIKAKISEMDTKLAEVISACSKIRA
Description: two-hybrid; RPW8.1 or RPW8.2 on the Gal4 BD (pGBKT7) as bait, ACO proteins and fragments on the Gal4 AD (pGADT7) as prey; growth on SD/-Ade/-His/-Leu/-Trp with X-alpha-gal (40 ug/ml) and Aureobasidin A (200 ng/ml), photographed after 3 d.

By UniProt entry, the sequences of proteins in these tests, tags left out.
UniProt Q06588: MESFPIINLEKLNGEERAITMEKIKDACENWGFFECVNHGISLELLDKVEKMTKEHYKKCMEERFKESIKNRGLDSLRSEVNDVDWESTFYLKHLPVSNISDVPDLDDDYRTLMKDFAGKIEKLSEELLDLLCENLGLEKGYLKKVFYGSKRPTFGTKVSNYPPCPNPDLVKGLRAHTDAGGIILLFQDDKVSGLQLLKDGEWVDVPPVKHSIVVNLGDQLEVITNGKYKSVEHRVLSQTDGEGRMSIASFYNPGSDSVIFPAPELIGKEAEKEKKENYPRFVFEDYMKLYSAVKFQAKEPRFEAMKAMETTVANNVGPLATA
UniProt Q41931: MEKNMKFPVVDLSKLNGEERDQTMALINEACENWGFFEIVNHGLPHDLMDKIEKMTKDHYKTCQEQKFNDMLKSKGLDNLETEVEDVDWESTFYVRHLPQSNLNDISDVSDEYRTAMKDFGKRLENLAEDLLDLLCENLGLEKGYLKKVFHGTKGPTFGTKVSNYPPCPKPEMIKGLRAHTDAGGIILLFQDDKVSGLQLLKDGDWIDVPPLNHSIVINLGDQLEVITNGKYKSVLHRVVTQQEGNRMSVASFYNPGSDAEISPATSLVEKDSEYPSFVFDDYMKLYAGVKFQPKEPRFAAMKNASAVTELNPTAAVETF

In test [2] the target is T2, YN-RPW8.1 (Arabidopsis (accession Ms-0)) (UniProt Q9C5Z7).
T2 sequence: T1 sequence
Description: split reporter; BiFC: YN- and YC-tagged proteins coexpressed in N. benthamiana leaves; YFP fluorescence by confocal microscopy 2 d after infiltration.

For test [3], the target named is T3, RPW8.1-YC (Arabidopsis (accession Ms-0)) (UniProt Q9C5Z7).
T3 sequence: T1 sequence
Described as above.

Results are given in words; binding and its absence hold for the method and conditions named. For some of these results: Binding seen in cells or lysates may run through a third protein. Some entries that bind do so weakly or less than the wild type. For some of these results: Sequences can lack the tags named with a protein.

As to “1-aminocyclopropane-1-carboxylate oxidase 4 (ACO4), full length, fused to the Gal4 activation domain (AD) of pGADT7 (from UniProt Q06588 1-323) (enzyme)”, the binding result in test [1] is listed as “binds”.

“ACO2 in the GAL4 activation domain (AD) vector (from UniProt Q41931 1-320) (enzyme)”: the binding result in test [1] is “no binding”.

Consider “ACO4-YC (from UniProt Q06588 1-323) (enzyme)”, for which the binding result in test [2] is “binds”.

In the case of “YN-ACO4 (from UniProt Q06588 1-323) (enzyme)”, the binding entry in test [3] is “binds”.

These data come from article PMC7754472.
